Whole data set: some 33,000 sequences, median “E-score (-0.5 to 0.5)” near -0.012, cut for the highest 2% near 0.27. The list shows a part of the results.
target: T1, Vhr1 (UniProt P40522); assay: PBM E-score (8-mer binding enrichment) (E-score (-0.5 to 0.5)); higher = stronger / more preferred TF binding; most listed sequences are background and not binding sites; settings: protein concentration: 200 nM; construct: GST-full length
T1 sequence: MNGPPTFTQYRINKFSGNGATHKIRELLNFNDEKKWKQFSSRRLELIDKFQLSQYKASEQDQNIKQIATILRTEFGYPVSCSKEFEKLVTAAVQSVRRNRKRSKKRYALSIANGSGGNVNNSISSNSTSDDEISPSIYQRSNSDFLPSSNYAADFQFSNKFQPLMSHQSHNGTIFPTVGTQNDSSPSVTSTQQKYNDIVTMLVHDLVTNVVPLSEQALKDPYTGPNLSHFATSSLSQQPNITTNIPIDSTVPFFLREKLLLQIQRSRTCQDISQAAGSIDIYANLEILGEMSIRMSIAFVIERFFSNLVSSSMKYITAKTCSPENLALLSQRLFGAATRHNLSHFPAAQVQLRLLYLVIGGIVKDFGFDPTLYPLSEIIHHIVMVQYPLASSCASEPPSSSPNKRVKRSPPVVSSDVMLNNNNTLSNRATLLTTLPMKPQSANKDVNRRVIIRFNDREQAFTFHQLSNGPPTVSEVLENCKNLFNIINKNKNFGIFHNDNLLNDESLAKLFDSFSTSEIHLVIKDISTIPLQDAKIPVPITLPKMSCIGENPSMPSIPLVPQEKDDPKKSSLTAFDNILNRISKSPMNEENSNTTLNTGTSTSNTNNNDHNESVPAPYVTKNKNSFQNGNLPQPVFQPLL
Experimental: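 Universal 'all 10-mer' protein binding microarrays (Agilent AMADID 015681) probed with GST-tagged S. cerevisiae TFs (full-length or DBD) made by in vitro transcription/translation (PURExpress), about 100-200 nM. Bound TF was detected with fluorescent anti-GST. Each ungapped 8-mer (which stands for itself and its reverse complement) is scored by the PBM enrichment score (E-score), a modified Wilcoxon-Mann-Whitney statistic from -0.5 to +0.5, computed with the Universal PBM Analysis Suite. Scale: above 0.35 generally sequence-specific binding.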

Row | Sequence | PBM E-score
1 | CCTTTCAG | -0.245
2 | GGAGCGCA | -0.344
3 | CAAGTTAC | -0.0596
4 | CCTTATGA | 0.125
5 | CGAGGAAG | -0.0342
6 | AGTGCGTA | 0.0484
7 | GAAGGATC | -0.0379
8 | ACCACGTA | -0.0666
9 | CGTGAGCA | -0.105
10 | CAATACCG | 0.092
11 | ACTTCTCA | -0.102
12 | GACAGTGC | 0.0443
13 | CGCTTCCA | -0.134
14 | GTTTGGAA | -0.19
15 | ATTTTACC | -0.0453
16 | GGACAGAC | 0.0477
17 | CGCGACAC | 0.224
18 | ATAGGCGG | 0.00193
19 | AACTATAT | 0.0791
20 | AGTAGCTG | -0.0149
21 | CGTGCTAG | -0.171
22 | GAGGCGTA | 0.0417
23 | CGTGTCAA | -0.145
24 | CAGTCCCG | -0.0554
25 | GCGATTAA | 0.184

Row | Sequence | PBM E-score
26 | TCAGACCA | 0.203
27 | GAACTAAA | -0.115
28 | AGCTTGAA | -0.222
29 | ATCATCTG | 0.151
30 | AAGATTTC | -0.0651
31 | ACCATTTG | 0.0774
32 | CTTTGCGC | -0.0168
33 | CATTTCGC | 0.0604
34 | ATCAAGCG | -0.109
35 | AAAATGAA | -0.11
36 | CGACGGAC | -0.00384
37 | GATGTGTA | 0.2
38 | CCATTGGA | -0.0822
39 | GTTACTCA | 0.224
40 | CTTGCGCA | 0.142
41 | CCGACGGC | -0.105
42 | CGTGATGC | 0.162
43 | CGGGATGC | -0.114
44 | GCGCATTA | -0.035
45 | AGATCTTA | -0.0915
46 | AAATGCGG | 0.0968
47 | CACCACCA | 0.146
48 | CCTTAACG | -0.103
49 | ACATGCGT | 0.0853
50 | ACAATGTG | 0.0847

Row | Sequence | PBM E-score
51 | GTTTGAAA | -0.0935
52 | CGCTTACC | -0.196
53 | GCCACATA | 0.03
54 | GTATTCCA | -0.0157
55 | CGAAGTGC | -0.107
56 | CCTAGGCG | -0.213
57 | TTACTAAA | -0.0751
58 | GGGGGCCA | -0.128
59 | ATTACTAA | 0.0221
60 | ACCCATTC | 0.199
61 | ATACTATG | 0.216
62 | ACATGCTG | 0.185
63 | ATAATGGA | 0.00279
64 | ACACAACC | 0.168
65 | GTCAGAAA | -0.0784
66 | CATGATTC | 0.424
67 | GGCAAGTA | 0.0953
68 | AATAAAAC | -0.254
69 | CGTGCAGC | 0.0437
70 | CTACACAC | 0.186
71 | AATAAGCG | -0.114
72 | CCCGTAGC | -0.244
73 | CAACGTTA | -0.0425
74 | GACGGGGC | 0.0761
75 | AATTCACA | -0.00719

Row | Sequence | PBM E-score
76 | ATTACCGC | -0.0553
77 | GTCACTAA | 0.166
78 | AGGCGCGA | 0.0505
79 | GCTTCCCC | -0.101
80 | ATCAACCC | 0.205
81 | TCAAGGGA | -0.0372
82 | AGCTCCAA | 0.162
83 | CCTGGCAA | -0.189
84 | GGCCTCGA | -0.206
85 | CAAAAAGA | -0.162
86 | CGTTAGGC | -0.116
87 | ACCCAGAG | 0.21
88 | CTACGACA | 0.0458
89 | CCCGCCAG | 0.088
90 | CTCGGAGC | -0.0114
91 | AACCTACT | 0.118
92 | CATTTCCG | 0.0829
93 | AAGGGTGC | -0.0494
94 | TAGTCTCA | -0.0317
95 | ACCCCACA | 0.169
96 | AACATATA | 0.125
97 | AGGGCTGG | -0.0983
98 | CTAAGTTC | -0.326
99 | GACCCGTC | 0.0316
100 | CGGGGGGA | -0.0994

Row | Sequence | PBM E-score
101 | CATTTGGA | -0.0584
102 | AGAGTTCA | -0.241
103 | CACCGACC | 0.0948
104 | CAAGCAAG | -0.0582
105 | AATGTTAA | -0.0066
106 | AGACCGCA | -0.0598
107 | ACTGCGAT | 0.131
108 | GGAGATCC | -0.0359
109 | AATGTCTA | -0.134
110 | TTGCAAAA | -0.213
111 | CTGTAGCC | 0.0591
112 | AAGCTTCC | -0.37
113 | GGGCAGGA | 0.134
114 | ATTATGTC | -0.133
115 | GCTCACCA | 0.0889
116 | TGTAGCAA | 0.0111
117 | AATTACCA | 0.0265
118 | CGCTTACA | -0.0577
119 | GCCCATAA | 0.0726
120 | CTAACCTA | -0.0357
121 | GAATCGAC | -0.005
122 | GAGACTGA | 0.0631
123 | GGGACGTA | -0.103
124 | AAAAGTGT | -0.22
125 | GCTCCCCA | -0.281

Row | Sequence | PBM E-score
126 | CTTGGGCA | -0.111
127 | ACCCTGCA | 0.0323
128 | CAACATGG | 0.0395
129 | ATGGCACG | -0.058
130 | AACGATTA | -0.0484
131 | ATCGGCGA | -0.0993
132 | ATACGTAT | 0.233
133 | ATAGATTC | -0.00919
134 | ACCGCCGT | 0.0915
135 | GCGTAGCA | -0.03
136 | TAACCCTA | 0.0573
137 | CTAAGTAG | 0.0365
138 | AGTACCGG | -0.0717
139 | AGAATACC | 0.161
140 | GACCGGGC | -0.166
141 | CGAGACTC | 0.309
142 | GAGGTCGC | 0.00623
143 | TAGTTTAA | -0.102
144 | CATGCATG | 0.117
145 | AGTGGCCA | -0.0267
146 | AACTCATT | -0.176
147 | AACGATAC | -0.0471
148 | GCATCGCA | 0.00441
149 | AATTAGAT | -0.00863
150 | GCCGAAAC | -0.0437

Row | Sequence | PBM E-score
151 | GATAGTCC | 0.0259
152 | CCACTCCG | 0.182
153 | GTATTGGA | -0.184
154 | GATTGAGA | 0.17
155 | AAGGTTGG | -0.145
156 | CTTAGTCA | 0.376
157 | AAGCTACG | -0.183
158 | ACCGGATC | 0.0913
159 | ATATTCAA | 0.0595
160 | GGACAAGA | -0.142
161 | CCTAAGAA | -0.159
162 | GTCCCCCA | -0.168
163 | GCAATGCC | -0.0222
164 | CCACGTAA | 0.0412
165 | ACTGACAT | 0.0699
166 | CCTCTAAC | -0.236
167 | GGCTAAAA | -0.269
168 | AGACGAGA | -0.152
169 | ATAGATCC | 0.00556
170 | ATTTTACG | -0.0604
171 | CGAATGAG | 0.0895
172 | CAGTAATC | 0.112
173 | AGACAAAG | -0.215
174 | AACTTTAT | 0.0379
175 | TAATAACA | -0.0306

Row | Sequence | PBM E-score
176 | GCCATGTA | 0.127
177 | ACGATCCA | 0.19
178 | AGTATTTA | -0.0913
179 | AGCTAGCT | 0.0198
180 | AACACGGT | 0.0558
181 | GAGGAGGC | -0.241
182 | CTGAAACA | -0.0117
183 | ATGGTAGA | 0.021
184 | CTTCAAAC | -0.146
185 | AGCTAGTA | 0.153
186 | GCGATGAA | -0.00187
187 | AGAAATAC | -0.118
188 | AGGATACG | -0.122
189 | CTTTCTTC | -0.0742
190 | CGATGTAG | -0.0137
191 | AACAAATT | 0.0774
192 | CTAACGGA | -0.0572
193 | GGAACATA | 0.0536
194 | ATCCGTAC | 0.18
195 | ACATGCAA | 0.114
196 | CGATGAAC | 0.00701
197 | ACAAGTGG | -0.0165
198 | CCTCGCGA | -0.0849
199 | AGGCGGTC | -0.0553
200 | CACGTGGC | -0.0825

Row | Sequence | PBM E-score
201 | CCTGTTTA | -0.0807
202 | CGAGTAAG | 0.211
203 | GGACCACC | 0.216
204 | GGCCCACA | -0.121
205 | CTTAAACC | -0.307
206 | GACAATCA | 0.119
207 | ACTTCGAT | -0.0101
208 | CGCTACTC | 0.00036
209 | AAGGGGTG | -0.0467
210 | GCCTGCAA | -0.161
211 | AGTGTAGC | 0.121
212 | AGAGCTAG | -0.118
213 | CTAGAGGA | -0.203
214 | GTAGTCAC | 0.441
215 | CCGTTCCC | -0.0166
216 | ACAGCAAT | 0.159
217 | GAGCAGCA | 0.0652
218 | ATACGATC | 0.102
219 | GATCTGCC | 0.0186

Source: the supplement of paper PMC3334620
